ChEMBL document CHEMBL4888484, “Replenishing the malaria drug discovery pipeline: Screening and hit evaluation of the MMV Hit Generation Library 1 (HGL1) against asexual blood stage Plasmodium falciparum ,using a nano luciferase reporter read-out” (2022)
In all, about 150,000 compounds went through this assay and about 540 (0.36%) showed an effect of 50% or more. This is one part of the list.

tested on: Plasmodium falciparum; assay: Primary screen in NF54 nanoGlo assay, in single point, at 2uM, 72h; a lower Z score goes with more inhibition; format: functional, Erythrocyte; conditions: timepoint 72 hour

**Q.** `CN(Cc1ccco1)c1nc(N)nc2ccc(C(=O)O)cc12` was tested. Which “% Inhibition” value did it give?
**A.** The value was -15%.

**Q.** What about the Z score of the same compound?
**A.** The Z score was 1.36.

**Q.** With `CC1(C)CN(C(=O)c2ccc(F)cc2F)CC[S@+]1[O-]` as the compound, how does the “% Inhibition” value read?
**A.** Its value is -10%.

**Q.** And the Z score?
**A.** Its Z score is 1.37.

**Q.** What does the source list for `COCC1(CNC(=O)CCCN2CCOCC2)CCCC1`?
**A.** % Inhibition: -7%; Z score: 0.85

**Q.** What does the source list for `Cc1cc(C)nc(CN(C)C[C@H](O)C2CC2)c1`?
**A.** % Inhibition: -10%; Z score: 1.2

**Q.** How did the “% Inhibition” value turn out when `CCN1CC[C@@]2(CCC1=O)CN(Cc1cscn1)CCN2C` was run?
**A.** The value was -2%.

**Q.** What about the Z score of the same compound?
**A.** Its Z score is 0.42.

**Q.** For `CCc1noc(C)c1C(=O)N[C@H](c1cnc2ccccc2c1)C1CC(O)C1` (stereo partly specified), which “% Inhibition” value is on record?
**A.** The value was -26%.

**Q.** And the Z score?
**A.** The Z score was 3.38.

**Q.** How did the “% Inhibition” value turn out when `Cc1nc2[nH]n(C)c(=O)c2c(C)c1CCC(=O)NC1CCCCC1C` (stereo unspecified) was run?
**A.** Its value is -8%.

**Q.** What about the Z score of the same compound?
**A.** Its Z score is 1.04.

**Q.** For `Cc1ccc(NC2CCN(C(=O)c3cn4ccc(C)cc4n3)CC2)cc1`, which “% Inhibition” value is on record?
**A.** Its value is 6%.

**Q.** What about the Z score of the same compound?
**A.** The Z score was -0.73.

**Q.** `CNS(=O)(=O)Cc1noc([C@@H]2CCCN2Cc2ccccc2)n1` was tested. Which “% Inhibition” value did it give?
**A.** The value was -10%.

**Q.** What about the Z score of the same compound?
**A.** The Z score was 1.99.

**Q.** What does the source list for `CC(=O)N(c1nc(C)c(C(=O)Nc2nc3ccccc3s2)s1)C(C)C`?
**A.** % Inhibition: 5%; Z score: -0.81

**Q.** For `Cc1cc(S(=O)(=O)N2CCCO2)c(C)s1`, which “% Inhibition” value is on record?
**A.** Its value is -8%.

**Q.** What about the Z score of the same compound?
**A.** The Z score was 1.26.

**Q.** With `Cc1ccc2nc(-c3ccc(N4CCOCC4)cc3)c(Nc3ccc4c(c3)OCCO4)n2c1` as the compound, how does the “% Inhibition” value read?
**A.** The value was -1%.

**Q.** What about the Z score of the same compound?
**A.** Its Z score is 0.16.

**Q.** With `CC(C)(C)OC(=O)N[C@H]1CCc2ncc(N)cc2C1` as the compound, how does the “% Inhibition” value read?
**A.** Its value is -3%.

**Q.** And the Z score?
**A.** Its Z score is 0.31.

**Q.** What does the source list for `CC1CN(S(=O)(=O)c2ccccc2)C(C)N1C(=O)N1CCOCC1` (stereo unspecified)?
**A.** % Inhibition: 11%; Z score: -1.4

**Q.** With `COc1cc([C@@H](c2c(-c3ccccc3)nn(-c3ccc(C)cc3)c2O)c2c(-c3ccccc3)[nH]n(-c3ccc(C)cc3)c2=O)ccc1O` as the compound, how does the “% Inhibition” value read?
**A.** The value was 11%.

**Q.** And the Z score?
**A.** The Z score was -1.62.

**Q.** For `COc1cccc(OCc2nc(C(=O)NCc3ccon3)co2)c1`, which “% Inhibition” value is on record?
**A.** The value was 6%.

**Q.** What about the Z score of the same compound?
**A.** Its Z score is -1.17.

**Q.** Which “% Inhibition” value does the source give for `OCc1ccc(-c2cn([C@H]3CCCN(c4ncccn4)C3)nn2)o1` here?
**A.** Its value is -5%.

**Q.** And the Z score?
**A.** Its Z score is 0.47.

**Q.** Which results are given for `COc1ccc2ccccc2c1C1=NN(C(C)=O)[C@H](c2ccc(-c3ccccc3)cc2)O1`?
**A.** % Inhibition: 4%; Z score: -0.49

**Q.** `Cc1nc(N2CCOCC2)ccc1NC(=O)N1CC[C@@H](C(F)(F)F)C1(C)C` was tested. Which “% Inhibition” value did it give?
**A.** Its value is -9%.

**Q.** And the Z score?
**A.** The Z score was 1.48.

**Q.** How did the “% Inhibition” value turn out when `CCc1ccc(CN2C[C@H]3CC[C@@H](C2)[C@H]3N(C)C)o1` was run?
**A.** The value was -10%.

**Q.** What about the Z score of the same compound?
**A.** The Z score was 1.66.

**Q.** `Cc1nc([C@H]2CCN(c3ncnc4scc(C)c34)C2)n[nH]1` was tested. Which “% Inhibition” value did it give?
**A.** The value was -11%.

**Q.** What about the Z score of the same compound?
**A.** Its Z score is 1.41.

**Q.** Which “% Inhibition” value does the source give for `CN(Cc1ncnn1C)C(=O)c1c[nH]nc1-c1ccccc1` here?
**A.** The value was -9%.

**Q.** And the Z score?
**A.** The Z score was 1.58.

**Q.** How did the “% Inhibition” value turn out when `Cc1ccc(NC(=O)N(C)CCN(C)C2CCCC2)cc1F` was run?
**A.** Its value is -4%.

**Q.** And the Z score?
**A.** Its Z score is 0.6.
